Measurements reported in PMC4336329 (PLoS ONE, 2015).
Out of some 310,000 compounds screened, about 2,200 (0.71%) showed an effect of 50% or more. Effects have a minus sign here. The list shows a part of the results.

Each molecule was assayed against human ether-à-go-go-related gene (hERG) potassium channel (human, UniProt Q12809) (assay: primary screen, population patch clamp on CHO cells stably expressing hERG).
Sequence of human ether-à-go-go-related gene (hERG) potassium channel (Q12809 whole entry, looked up): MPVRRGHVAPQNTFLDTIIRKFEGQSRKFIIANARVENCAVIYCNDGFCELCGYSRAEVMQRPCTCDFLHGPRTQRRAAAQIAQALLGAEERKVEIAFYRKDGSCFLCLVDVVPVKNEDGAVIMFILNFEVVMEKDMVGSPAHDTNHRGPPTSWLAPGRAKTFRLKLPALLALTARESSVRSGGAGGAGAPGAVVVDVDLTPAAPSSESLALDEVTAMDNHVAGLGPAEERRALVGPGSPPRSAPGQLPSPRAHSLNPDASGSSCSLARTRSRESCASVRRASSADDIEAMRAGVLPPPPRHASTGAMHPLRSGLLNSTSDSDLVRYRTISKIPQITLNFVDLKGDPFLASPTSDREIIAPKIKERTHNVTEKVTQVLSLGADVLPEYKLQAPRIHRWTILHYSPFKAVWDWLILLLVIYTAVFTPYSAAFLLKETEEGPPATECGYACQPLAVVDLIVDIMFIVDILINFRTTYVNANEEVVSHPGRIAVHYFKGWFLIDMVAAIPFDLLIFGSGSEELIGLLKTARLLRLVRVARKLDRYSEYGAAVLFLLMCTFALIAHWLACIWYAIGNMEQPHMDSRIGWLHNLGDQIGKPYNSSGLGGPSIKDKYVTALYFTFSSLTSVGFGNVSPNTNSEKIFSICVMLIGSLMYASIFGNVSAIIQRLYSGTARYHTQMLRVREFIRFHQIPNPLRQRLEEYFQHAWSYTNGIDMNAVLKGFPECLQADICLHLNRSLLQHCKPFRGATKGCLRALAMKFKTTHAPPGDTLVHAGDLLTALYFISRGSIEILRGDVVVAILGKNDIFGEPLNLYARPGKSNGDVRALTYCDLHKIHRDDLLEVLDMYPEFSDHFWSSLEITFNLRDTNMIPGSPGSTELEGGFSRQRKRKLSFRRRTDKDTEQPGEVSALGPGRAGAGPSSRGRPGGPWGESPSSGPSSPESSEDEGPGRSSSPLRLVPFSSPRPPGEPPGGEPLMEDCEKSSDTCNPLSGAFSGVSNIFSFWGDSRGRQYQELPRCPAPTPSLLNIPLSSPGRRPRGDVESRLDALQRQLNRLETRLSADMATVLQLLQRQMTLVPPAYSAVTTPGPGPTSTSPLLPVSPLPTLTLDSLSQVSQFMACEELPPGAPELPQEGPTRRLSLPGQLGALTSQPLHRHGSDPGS

| SMILES | hERG current change (%, negative = inhibition) at 1uM [%] |
| --- | --- |
| O=C(CCN1C(=O)c2ccccc2C1=O)Nc1ccccn1 | 7.12 |
| CCc1cc(=O)oc2c3c(cc(OCC(=O)NCc4ccncc4)c12)OC(C)(C)CC3 | -10.9 |
| O=C(c1cnn2ccccc12)N1CCc2ccccc21 | 7.95 |
| O=C(NCc1nnc(SCC(=O)N2CCCc3ccccc32)o1)c1ccco1 | 15.2 |
| CC(=O)c1ccccc1C(=O)N1CCCC(C(=O)c2ccc(C(F)(F)F)cc2)C1 (centres unmarked) | 5.28 |
| NNC(=O)CCc1nc2ccccc2[nH]1 | 11.1 |
| O=C1C(=O)N(Cc2cccnc2)C(c2ccccn2)/C1=C(/O)c1ccc(Br)cc1 (centres unmarked) | 13.3 |
| O=C(COC(=O)CCC(=O)c1ccc(F)cc1)Nc1ccccc1 | 3.6 |
| CC1(C)N=C(SCC(=O)Nc2ccc(Cl)cc2)C(c2ccccc2)=N1 | -1.06 |
| Cc1cc(C)n2nc(C(F)(F)F)c(-c3ccccc3)c2n1 | 2.1 |
| CCN1CCN(Cc2nnc(-c3ccc(C)cc3)o2)CC1 | 9.79 |
| O=C(CN1CCOCC1)Nc1ccccc1 | 7.23 |
| COc1cccc(OCc2nnc(SCC(=O)NNC(=O)C3CCCCC3)n2C)c1 | 10 |
| COc1ccc(-c2nc(NC(=O)c3ccc(OCC(=O)Nc4ccc(F)cc4)c(OC)c3)sc2C)cc1 | 7.83 |
| CC(=O)NS(=O)(=O)c1ccc(NC(=O)/C=C/c2cn(-c3ccccc3)nc2-c2ccccc2)cc1 | 19.7 |
| O=C(Nc1ccc2c(c1)N(Cc1ccccc1)C(=O)c1ccccc1S2)NC1CC1 | 6.88 |
| Cc1ccsc1CNC1C2CC3CC(C2)CC1C3.Cl (centres unmarked) | 8.63 |
| Nc1ccc(C(=O)Nc2ccc(OC(F)(F)C(F)F)c(NC(=O)c3ccc(N)cc3)c2)cc1 | 9.48 |
| COc1ccccc1N1CCN(CCCNc2c(C)c(=O)n(C)c(=O)n2C)CC1 | 7.31 |
| C/C(=N/OC(=O)N(C)C)c1ncc(C(F)(F)F)cc1N1CCOCC1 | 12.1 |
| C=CCNC(=O)COc1ccc(S(=O)(=O)N2CCCC2)cc1 | -6.57 |
| O=C(Cc1ccccc1)NNC(=O)c1cnccn1 | 8 |
| CCOc1ccc(NC(=O)C2CSC(c3ccncc3)=N2)cc1 (centres unmarked) | 11.7 |

| SMILES | hERG current change (%, negative = inhibition) at 1uM [%] |
| --- | --- |
| O=C(CNC(=O)[C@@H]1Cc2ccccc2CN1)NC1CCCCC1 | 12.3 |
| C/C=C/c1ccccc1OCc1ccc(C(=O)O)o1 | 18.7 |
| COc1ccc(C(=O)N2CCCC(c3nc(-c4cccs4)no3)C2)cc1 (centres unmarked) | -2.12 |
| Cc1ccc(CNC(=O)c2cc(-c3ccccc3)nn2CC2CC(c3cccnc3)=NO2)cc1 (centres unmarked) | -7.34 |
| CCCSC1=C(C#N)C(c2cccnc2)C(C(=O)OCC)=C(c2ccccc2)N1 (centres unmarked) | 5.56 |
| Cc1ccc2cc(CN(Cc3ccco3)C(=O)C3CCCCC3)c(=O)[nH]c2c1C | 6.2 |
| CCCc1nnc(NC(=O)CSc2nc3ccccc3[nH]2)s1 | -0.548 |
| COc1ccc2[nH]c(C(=O)NCCN3CCCCC3)cc2c1 | 6.82 |
| O=C(O)c1cc(-c2ccccc2)nn1CC1CC(c2cccc([N+](=O)[O-])c2)=NO1 (centres unmarked) | 17.2 |
| COc1cc(SC)ccc1C(=O)OCC(=O)NC1CCCCC1 | 7.45 |
| Cc1ccc(CN(C)C(=O)CCNS(=O)(=O)c2ccccc2)o1 | -2.12 |
| CN(C)CCCNC(=O)c1cc(C(=O)c2ccccc2F)c[nH]1 | 7.67 |
| COc1ccccc1NS(=O)(=O)c1cc(Cl)ccc1OC | 9.14 |
| Brc1ccc(-c2nnc3ccc(N4CCN(c5ccccc5)CC4)nn23)cc1 | 4.42 |
| Cc1ccc(C(=O)NNc2nc3ccccc3nc2C(F)(F)F)cc1 | 12.9 |
| COc1cc2c(cc1O)C(Cc1ccc(O)cc1)[N+](C)([O-])CC2 (centres unmarked) | 11.8 |
| COc1ccc(Nc2n[nH]c(N)c2C(N)=O)cc1 | 7.9 |
| Cc1ccccc1CNS(=O)(=O)c1ccc2c(c1)C(C)(C)C(=O)N2C | 9.75 |
| O=C(COC(=O)c1ccc(O)cc1)Nc1ccc(Cl)cc1 | 16.9 |
| COc1ccccc1C(=O)Nc1cc(C)on1 | 8.96 |
| CN(C)/N=C/C=C1\CCC/C(=C/c2cccs2)C1=O | 7.9 |
| COc1ccccc1OCC(=O)Nc1cccc(S(=O)(=O)NC2=NCCCCC2)c1 | 10.2 |
| O=C(CNS(=O)(=O)c1ccccc1)N1CCCC1 | 13.4 |

| SMILES | hERG current change (%, negative = inhibition) at 1uM [%] |
| --- | --- |
| Cc1ncc([N+](=O)[O-])n1CCOC(=O)NC(NCc1ccccc1)C(Cl)(Cl)Cl (centres unmarked) | 7.7 |
| COc1cc(Cl)ccc1NC(=O)COc1ccccc1C(=O)NN | 5.81 |
| COCc1nn2c(N)c(C#N)cnc2c1-c1ccccc1 | 12 |
| CC(C)CCNC(=O)CC1Nc2c3ccccc3nc(=S)n2C1=O (centres unmarked) | 7.45 |
| CC(C)(C)c1ccc(C2(C)NC(=O)N(CC(=O)c3ccc[nH]3)C2=O)cc1 (centres unmarked) | 10.9 |
| COc1ccc(-c2nn(C)c(=O)c3ccccc23)cc1NS(C)(=O)=O | -11 |
| O=C(N/N=C/c1ccccc1O)C1CCCC1 | 8.11 |
| CCOC(=O)c1c(N)sc2c(NC(C)=O)cccc12 | 8.94 |
| O=C(COC(=O)CCc1c[nH]c2ccccc12)Nc1ccc([N+](=O)[O-])cc1 | 14.7 |
| COc1ccc(/C=N/NC(=O)CNC(=O)c2ccc(S(=O)(=O)N3CCCC3)cc2)c(OC)c1 | 6.3 |
| CCCCN(C)CCCNC(=O)c1cn(C)c2ccc(S(=O)(=O)N(C)C3CCCCC3)cc2c1=O | -45.6 |
| COc1ccc(C2CC(c3ccc4ccccc4c3)=NN2C(=O)CN2C(=O)CCC2=O)cc1 (centres unmarked) | 7.79 |
| COc1cccc(C(=O)CSc2nnnn2C)c1 | 9.2 |
| Cc1cccc(C)c1OCC(=O)NC(Cc1c[nH]c2ccccc12)C(=O)O (centres unmarked) | 10.3 |
| Cc1csc(NC(=O)Cc2ccc(Br)cc2)n1 | 12 |
| CCCCN(C)CCCNC(=O)C1CCC(CNS(=O)(=O)c2c(C)cc(C)cc2C)CC1 (centres unmarked) | -76.3 |
| OC(c1ccccc1)(c1ccccc1)C1CCN(C(=S)NCCc2ccccc2)CC1 | 13.9 |
| O=C(NC1(C(F)(F)F)Oc2ccc(Cl)cc2O1)N1CCC2(CC1)OCCO2 (centres unmarked) | 15.3 |
| COc1ccc(C(CCNCc2ccc(OC(C)C)cc2)c2ccccc2OC)cc1 (centres unmarked) | -24.2 |
| CCn1c(=N)n(CCOc2ccc(OC)cc2)c2ccccc21 | -25.5 |
| O=C(CCN1C(=O)S/C(=C\c2ccc(F)cc2)C1=O)Nc1ccc(O)cc1C(=O)O | 13.6 |
| Cc1nnsc1C(=O)Nc1ccccc1 | 16.3 |
| CCC(=O)Nc1ccc(C(=O)NNC(=O)c2ccc(C)cc2)cc1 | 10.9 |

| SMILES | hERG current change (%, negative = inhibition) at 1uM [%] |
| --- | --- |
| Fc1ccc2c(c1)[C@H]1OCC[C@H]1[C@@H](c1ccco1)N2 | 13.1 |
| COCCCNC(=O)C(=O)Nc1cc2c3c(c1)CCN3C(=O)CC2 | 21.5 |
| Cc1c(Cl)c([N+](=O)[O-])nn1CCCC(=O)Nc1cc(Oc2ccccc2)cc([N+](=O)[O-])c1 | 1.66 |
| O=C(COC(=O)c1cccc(-n2cnnn2)c1)Nc1c(Cl)cccc1C(F)(F)F | 20.9 |
| Nn1c(SCC(=O)Nc2ccc3c(c2)OCCO3)nncc1=O | 16.4 |
| CCC(C)C(NC(=O)C1CCC(C)CC1)C(=O)Nc1ccc(OC)cc1 (centres unmarked) | 11 |
| COc1ccc(CC(=O)OCC(=O)Nc2ccc(Cl)c(S(=O)(=O)N(C)C)c2)cc1 | 18.3 |
| O=C(O)c1cccc(NC(=S)N/N=C/c2cccc(O)c2)c1 | 3.83 |
| CCOC(=O)c1c(S(=O)(=O)NCC(=O)NCc2cccc(C)c2)c(C)n(C)c1C | 11.7 |
| Cc1cccc(N2CCN(C(=O)CCNS(=O)(=O)c3cccs3)CC2C)c1 (centres unmarked) | 15 |
| O=[N+]([O-])c1cc(Br)c(OCc2nnc(-c3ccccc3)o2)c(Br)c1 | 4.33 |
| CCC(C)n1cnc2c(c1=O)c1nc3ccccc3nc1n2Cc1ccc(OC)cc1 (centres unmarked) | 6.21 |
| Cc1ccc(N(C)C(=O)CCS(=O)(=O)c2ccc3c(c2)oc(=O)n3C)cc1 | 10.7 |
| Cc1cc2c(cc1S(=O)(=O)NCc1ccccc1Cl)OCCN2C | 9.58 |
| Cc1ccc(NC(=O)C(C)Sc2nc(=O)cc(N)n2-c2ccccc2)cc1 (centres unmarked) | 8 |
| O=C(Nc1nnc(C2=COCCO2)o1)c1ccc(S(=O)(=O)N2CCCC2)cc1 | 16.6 |
| CSc1nc(N)n(-c2cc(C(F)(F)F)ccn2)n1 | 3.77 |
| Cc1cc(C)nc(N/N=C/c2ccccc2OCc2ccc([N+](=O)[O-])cc2)n1 | -5.89 |
| N#Cc1c2ccc([N+](=O)[O-])cc2[n+]([O-])n1-c1ccccc1 | 11.9 |
| O=C(NC1CCCCC1)N1CCN(Cc2ccco2)CC1 | 13.9 |
